Source: the supplement of paper PMC8728848
The list shows a part of the results.

How the values were obtained:
Assay in all cases: glycan array binding signal (z-score within array); higher = stronger binding
Conditions in all cases: glycan notation: IUPAC condensed, linker removed
[1] = target: Gal(b1-3)GalNAc(b1-4)Gal(b1-4)Glc
In short: (§1)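 Negative Z-scores can be read as non-binding. The Z-score is calculated within each array and then averaged across arrays of one protein sequence at different concentrations or buffers and across linkers. Arrays, 3228 in all, were curated from the Consortium for Functional Glycomics database and kept only where the protein sequence was available.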

[2] = target: Gal(b1-3)GalNAc(b1-4)[Neu5Ac(a2-3)]Gal(b1-4)Glc
In short: as §1

Gal(b1-3)GlcNAc = target: Gal(b1-3)GlcNAc
In short: as §1

[3] = target: Gal(b1-3)GlcNAc(a1-3)Gal(b1-4)GlcNAc
In short: as §1

[4] = target: Gal(b1-3)GlcNAc(a1-6)Gal(b1-4)GlcNAc
In short: as §1

Gal(b1-3)GlcNAc(b1-2)Man = target: Gal(b1-3)GlcNAc(b1-2)Man
In short: as §1

[5] = target: Gal(b1-3)GlcNAc(b1-2)Man(a1-3)[Gal(b1-3)GlcNAc(b1-2)Man(a1-6)]Man(b1-4)GlcNAc(b1-4)GlcNAc
In short: as §1

[6] = target: Gal(b1-3)GlcNAc(b1-2)Man(a1-3)[Gal(b1-3)GlcNAc(b1-2)Man(a1-6)]Man(b1-4)GlcNAc(b1-4)[Fuc(a1-6)]GlcNAc
In short: as §1

[7] = target: Gal(b1-3)GlcNAc(b1-2)Man(a1-3)[GlcNAc(b1-4)][Gal(b1-3)GlcNAc(b1-2)Man(a1-6)]Man(b1-4)GlcNAc(b1-4)GlcNAc
In short: as §1

[8] = target: Gal(b1-3)GlcNAc(b1-2)[Gal(b1-3)GlcNAc(b1-6)]Man(a1-6)[Gal(b1-3)GlcNAc(b1-2)Man(a1-3)]Man(b1-4)GlcNAc(b1-4)GlcNAc
In short: as §1

[9] = target: Gal(b1-3)GlcNAc(b1-3)Gal(b1-3)GlcNAc
In short: as §1

[10] = target: Gal(b1-3)GlcNAc(b1-3)Gal(b1-4)Glc
In short: as §1

[11] = target: Gal(b1-3)GlcNAc(b1-3)Gal(b1-4)GlcNAc
In short: as §1

[12] = target: Gal(b1-3)GlcNAc(b1-3)Gal(b1-4)GlcNAc(b1-2)Man(a1-3)[Gal(b1-3)GlcNAc(b1-3)Gal(b1-4)GlcNAc(b1-2)Man(a1-6)]Man(b1-4)GlcNAc(b1-4)GlcNAc
In short: as §1

[13] = target: Gal(b1-3)GlcNAc(b1-3)Gal(b1-4)GlcNAc(b1-2)[Gal(b1-3)GlcNAc(b1-3)Gal(b1-4)GlcNAc(b1-6)]Man(a1-6)[Gal(b1-3)GlcNAc(b1-3)Gal(b1-4)GlcNAc(b1-2)Man(a1-3)]Man(b1-4)GlcNAc(b1-4)[Fuc(a1-6)]GlcNAc
In short: as §1

[14] = target: Gal(b1-3)GlcNAc(b1-3)Gal(b1-4)GlcNAc(b1-3)Gal(b1-4)GlcNAc(b1-2)[Gal(b1-3)GlcNAc(b1-3)Gal(b1-4)GlcNAc(b1-3)Gal(b1-4)GlcNAc(b1-6)]Man(a1-6)[Gal(b1-3)GlcNAc(b1-3)Gal(b1-4)GlcNAc(b1-3)Gal(b1-4)GlcNAc(b1-2)Man(a1-3)]Man(b1-4)GlcNAc(b1-4)[Fuc(a1-6)]GlcNAc
In short: as §1

[15] = target: Gal(b1-3)GlcNAc(b1-3)Gal(b1-4)GlcNAc(b1-6)[Gal(b1-3)GlcNAc(b1-3)]Gal(b1-4)Glc
In short: as §1

[16] = target: Gal(b1-3)GlcNAc(b1-3)Gal(b1-4)[Fuc(a1-3)]GlcNAc
In short: as §1

[17] = target: Gal(b1-3)GlcNAc(b1-3)Gal(b1-4)[Fuc(a1-3)]GlcNAc(b1-6)[Gal(b1-3)GlcNAc(b1-3)]Gal(b1-4)Glc
In short: as §1

[18] = target: Gal(b1-3)GlcNAc(b1-3)GalNAc
In short: as §1

[19] = target: Gal(b1-3)GlcNAc(b1-6)Gal(b1-4)GlcNAc
In short: as §1

[20] = target: Gal(b1-3)GlcNAc(b1-6)GalNAc
In short: as §1

[21] = target: Gal(b1-3)GlcNAc(b1-6)[Gal(b1-3)]GalNAc
In short: as §1

Gal(b1-3)GlcNAc6S = target: Gal(b1-3)GlcNAc6S
In short: as §1

[22] = target: Gal(b1-3)[Fuc(a1-4)]GlcNAc
In short: as §1

[23] = target: Gal(b1-3)[Fuc(a1-4)]GlcNAc(b1-2)Man
In short: as §1

[24] = target: Gal(b1-3)[Fuc(a1-4)]GlcNAc(b1-2)Man(a1-3)[Gal(b1-3)[Fuc(a1-4)]GlcNAc(b1-2)Man(a1-6)]Man(b1-4)GlcNAc(b1-4)[Fuc(a1-6)]GlcNAc
In short: as §1

[25] = target: Gal(b1-3)[Fuc(a1-4)]GlcNAc(b1-3)Gal(b1-3)[Fuc(a1-4)]GlcNAc
In short: as §1

[26] = target: Gal(b1-3)[Fuc(a1-4)]GlcNAc(b1-3)Gal(b1-4)[Fuc(a1-3)]GlcNAc
In short: as §1

[27] = target: Gal(b1-3)[Fuc(a1-4)]GlcNAc(b1-6)GalNAc
In short: as §1

[28] = target: Gal(b1-3)[GlcNAc(b1-6)]GalNAc
In short: as §1

[29] = target: Gal(b1-3)[Neu5Ac(a2-6)]GalNAc
In short: as §1

[30] = target: Gal(b1-3)[Neu5Ac(a2-6)]GlcNAc(b1-4)Gal(b1-4)Glc
In short: as §1

[31] = target: Gal(b1-3)[Neu5Ac(b2-6)]GalNAc
In short: as §1

Gal(b1-4)Gal = target: Gal(b1-4)Gal
In short: as §1

[32] = target: Gal(b1-4)GalNAc(a1-3)[Fuc(a1-2)]Gal(b1-4)GlcNAc
In short: as §1

[33] = target: Gal(b1-4)GalNAc(b1-3)[Fuc(a1-2)]Gal(b1-4)GlcNAc
In short: as §1

Gal(b1-4)Glc = target: Gal(b1-4)Glc
In short: as §1

B1: Pbx1 (Cryptococcus neoformans) (protein)
chain: ATTKCLVSGDQDSINNALALGGEGTTVTLCPGSVHRLNSSIIFTAPSQTLTTLGNPKDRNRAMLVVDGEDLACAIRADCKQCSHAMIRSLVIDGNRPQLLRIPKGDALIEVGNAESQTVRDCKLYEPRGWSALHFREGDERQCRFGHIVDNEIGPCGEEWDDEYDSMDETKPLWGNPRADGISLACKDSIVERNVVYDATDGAIVLFGSAGSTVKNNHVYARTRVILGGINLVDYEPWDGDYTNVKVHHNHLYALGRYFKVGIVIGPASWSDDTESVVHSASVTDNEFSGGYWGYGIVVASAKNFEVLRNKVIWDGEQGVARFSGVPGSRCPKAPENGKPTAFLINRGSAKGIFQDDFVNGEVQHIICLNPDQDPPYKPWRFRDSPEAIAAKQAENPTANSAFDSRIAEALVSYQMSLLNSMDAMTQKVEHLTNPIVDDALPFVHEHERAEADKKARQEASRKEKESGNKDVDMLNVKVEELEKSGRRLKKALDGLKSDFEGLSGRLKKSADENKPIIETIFVTSQNLLLGATSQQN
- glycan array binding signal (z-score) [1]: 0.348
- glycan array binding signal (z-score) [2]: -0.155
- glycan array binding signal (z-score) (Gal(b1-3)GlcNAc): -0.546
- glycan array binding signal (z-score) [3]: -0.304
- glycan array binding signal (z-score) [4]: -0.457
- glycan array binding signal (z-score) (Gal(b1-3)GlcNAc(b1-2)Man): 0.676
- glycan array binding signal (z-score) [5]: -0.382
- glycan array binding signal (z-score) [6]: 1.49
- glycan array binding signal (z-score) [7]: 0.415
- glycan array binding signal (z-score) [8]: 0.208
- glycan array binding signal (z-score) [9]: -0.112
- glycan array binding signal (z-score) [10]: -0.533
- glycan array binding signal (z-score) [11]: 0.572
- glycan array binding signal (z-score) [12]: 0.187
- glycan array binding signal (z-score) [13]: 1.06
- glycan array binding signal (z-score) [14]: 15
- glycan array binding signal (z-score) [15]: -0.554
- glycan array binding signal (z-score) [16]: 0.149
- glycan array binding signal (z-score) [17]: -0.611
- glycan array binding signal (z-score) [18]: -0.34
- glycan array binding signal (z-score) [19]: -0.652
- glycan array binding signal (z-score) [20]: 0.171
- glycan array binding signal (z-score) [21]: -0.269
- glycan array binding signal (z-score) (Gal(b1-3)GlcNAc6S): -0.086
- glycan array binding signal (z-score) [22]: 0.151
- glycan array binding signal (z-score) [23]: 0.029
- glycan array binding signal (z-score) [24]: 0.053
- glycan array binding signal (z-score) [25]: -0.758
- glycan array binding signal (z-score) [26]: -0.146
- glycan array binding signal (z-score) [27]: 0.227
- glycan array binding signal (z-score) [28]: -0.612
- glycan array binding signal (z-score) [29]: -0.198
- glycan array binding signal (z-score) [30]: 0.35
- glycan array binding signal (z-score) [31]: -0.695
- glycan array binding signal (z-score) (Gal(b1-4)Gal): -0.237
- glycan array binding signal (z-score) [32]: -0.606
- glycan array binding signal (z-score) [33]: -0.466
- glycan array binding signal (z-score) (Gal(b1-4)Glc): -0.509
